# Laboratory results taken from the BET-seq Pho4 binding data (Le et al. 2018).
# The other results are listed elsewhere or left out. Values were computed here from the reads of four pooled replicates and scatter widely.
# Target: T1, Pho4 (S. cerevisiae) (UniProt P07270)
# T1 sequence: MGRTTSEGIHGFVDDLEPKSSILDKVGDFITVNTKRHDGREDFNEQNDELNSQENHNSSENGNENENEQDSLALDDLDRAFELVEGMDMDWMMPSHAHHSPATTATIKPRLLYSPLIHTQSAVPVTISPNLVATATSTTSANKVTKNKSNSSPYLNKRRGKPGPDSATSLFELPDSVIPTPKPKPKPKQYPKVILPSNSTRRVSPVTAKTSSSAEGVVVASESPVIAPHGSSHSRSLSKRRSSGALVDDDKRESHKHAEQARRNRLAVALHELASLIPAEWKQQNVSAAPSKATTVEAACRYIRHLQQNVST
# Assay: relative binding free energy (BET-seq); higher = weaker binding
# Settings: reference: library average
row,Sequence,relative binding free energy
1,TTAGACACGTGTTTTG,0.08 kcal/mol
2,GGCTACACGTGTGTTG,0.07 kcal/mol
3,GTGAGCACGTGTTATT,-0.08 kcal/mol
4,AGGAGCACGTGGAAGT,0.01 kcal/mol
5,AATGTCACGTGTTTTC,0.04 kcal/mol
6,TGGGGCACGTGATGAG,-0.07 kcal/mol
7,AAGGGCACGTGCGATG,-0.09 kcal/mol
8,CGGAGCACGTGGTGAG,-0.02 kcal/mol
9,TGTGTCACGTGTTATG,0.02 kcal/mol
10,GATCTCACGTGCGGGG,0.24 kcal/mol
11,AGAGTCACGTGAAGTG,0.37 kcal/mol
12,GGTTACACGTGCAGTA,0.14 kcal/mol
13,AATTACACGTGGGGGC,0.06 kcal/mol
14,TGTTGCACGTGAAGAT,0.21 kcal/mol
15,TTAGTCACGTGGCTGT,-0.01 kcal/mol
16,TGCTTCACGTGTATTG,0.2 kcal/mol
17,GTCAGCACGTGTGTGA,-0.03 kcal/mol
18,AGTTTCACGTGGGTGC,0.18 kcal/mol
19,AGGCGCACGTGTTTTT,-0.07 kcal/mol
20,TTGAGCACGTGAGACT,0.13 kcal/mol
21,AGGCTCACGTGGCGGT,0.21 kcal/mol
22,TTCTTCACGTGCTGAG,0.47 kcal/mol
23,AGGTTCACGTGAAGGT,0.29 kcal/mol
24,TTGGACACGTGCATTT,0.06 kcal/mol
25,GTTGTCACGTGAGTTG,0.47 kcal/mol

row,Sequence,relative binding free energy
1,GTAGGCACGTGGTTCG,-0.14 kcal/mol
2,TGTGTCACGTGGACAT,-0.02 kcal/mol
3,TGGGGCACGTGCGATT,-0.17 kcal/mol
4,TATTTCACGTGCATTT,0.18 kcal/mol
5,AGTGGCACGTGTGTCC,-0.12 kcal/mol
6,GGAGCCACGTGTTGAG,0.21 kcal/mol
7,GAGGTCACGTGGTGAG,0.21 kcal/mol
8,GGTTCCACGTGTGATA,0.18 kcal/mol
9,ATCAACACGTGTGTGG,-0.04 kcal/mol
10,GAGGGCACGTGAATGT,0.11 kcal/mol
11,GGGGGCACGTGCAAGG,-0.12 kcal/mol
12,GGGCACACGTGTGGTA,0.02 kcal/mol
13,ACGTTCACGTGTAAGG,0.25 kcal/mol
14,GTATACACGTGAGTGC,0.35 kcal/mol
15,TCAGACACGTGAGGTG,0.1 kcal/mol
16,ATTTTCACGTGACGCT,0.45 kcal/mol
17,TGTTACACGTGGTTAC,0.01 kcal/mol
18,TTTAGCACGTGTATGT,-0.11 kcal/mol
19,CAAAGCACGTGGTTTG,-0.03 kcal/mol
20,GTACTCACGTGTGAAT,0.36 kcal/mol
21,ATAGGCACGTGTTTGC,-0.25 kcal/mol
22,TATGGCACGTGTGTAA,0.07 kcal/mol
23,GAGGTCACGTGCATGG,0.19 kcal/mol
24,CTGTTCACGTGGGTAT,0.13 kcal/mol
25,CTCTGCACGTGGTGTG,-0.19 kcal/mol

row,Sequence,relative binding free energy
1,ATGGCCACGTGGGGAG,-0.18 kcal/mol
2,ACGTTCACGTGTTATG,0.22 kcal/mol
3,TAACGCACGTGGGATT,-0.21 kcal/mol
4,AATCGCACGTGGTATT,-0.09 kcal/mol
5,GGGGGCACGTGACGCG,0.01 kcal/mol
6,TTGAGCACGTGGGTCA,-0.29 kcal/mol
7,TGAGACACGTGAGTGT,0.19 kcal/mol
8,CAGGACACGTGTTATG,0.08 kcal/mol
9,CTCGGCACGTGTGGAG,-0.03 kcal/mol
10,TTGTTCACGTGGAAAA,0.19 kcal/mol
11,TAAGTCACGTGCTGAG,0.11 kcal/mol
12,GTTTACACGTGTCTAG,0.11 kcal/mol
13,TATTGCACGTGATTCG,0.01 kcal/mol
14,TGGTGCACGTGAAGAA,0.22 kcal/mol
15,GGCTTCACGTGGACGT,0.28 kcal/mol
16,CTGGTCACGTGAGGCA,0.2 kcal/mol
17,GTGAGCACGTGGAGCG,-0.02 kcal/mol
18,TGTGACACGTGGGTAT,-0.18 kcal/mol
19,GCTTACACGTGAGTTT,0.29 kcal/mol
20,TACGACACGTGGGGGG,-0.03 kcal/mol
21,ATTTTCACGTGGTGGA,0.28 kcal/mol
22,AGTCGCACGTGAGCTG,0.24 kcal/mol
23,TGGTACACGTGAGTGG,0.38 kcal/mol
24,TGCGGCACGTGAGATA,0.15 kcal/mol
25,CTGGGCACGTGGTCTG,-0.2 kcal/mol

row,Sequence,relative binding free energy
1,TAGAGCACGTGGTTGC,-0.22 kcal/mol
2,GTGTTCACGTGTCCGG,0.19 kcal/mol
3,TGTTACACGTGGAGAT,0.01 kcal/mol
4,GTCGTCACGTGCTGGA,0.12 kcal/mol
5,AATGTCACGTGAGTTG,0.35 kcal/mol
6,AATGGCACGTGTGAGA,-0.09 kcal/mol
7,TGACACACGTGTTATT,0.15 kcal/mol
8,GCTGGCACGTGCGGGG,-0.08 kcal/mol
9,AGTATCACGTGTGGAA,0.21 kcal/mol
10,AGGATCACGTGGGTGC,-0.09 kcal/mol
11,TGTTGCACGTGTCTTG,-0.02 kcal/mol
12,AGGGTCACGTGCGCTT,0.01 kcal/mol
13,TGCAGCACGTGATAGG,0.14 kcal/mol
14,TTTATCACGTGTGGGA,0.18 kcal/mol
15,AGAGTCACGTGGTTGC,0.2 kcal/mol
16,GAGTTCACGTGGTGGT,0.29 kcal/mol
17,TGTGTCACGTGCGGCA,0.13 kcal/mol
18,TTTGTCACGTGCATGT,-0.11 kcal/mol
19,GTAATCACGTGATAAG,0.33 kcal/mol
20,ATCGGCACGTGATTTT,0.02 kcal/mol
21,TTTTGCACGTGGGCGT,-0.13 kcal/mol
22,GTGGTCACGTGGGCCT,-0.04 kcal/mol
23,ATGTGCACGTGAAAGT,0.22 kcal/mol
24,GTCGTCACGTGGTTGC,0.2 kcal/mol
25,GAGTCCACGTGGAGGT,0.08 kcal/mol

row,Sequence,relative binding free energy
1,GGTATCACGTGTCGGC,0.34 kcal/mol
2,CGTTTCACGTGTGGAC,0.46 kcal/mol
3,TTAAACACGTGGCATT,0.03 kcal/mol
4,CGTGTCACGTGGCGGC,-0.11 kcal/mol
5,AGGCCCACGTGGGAGG,-0.21 kcal/mol
6,TGTTCCACGTGTTGGG,0.17 kcal/mol
7,CTGGTCACGTGGCGTT,0.1 kcal/mol
8,TGTGGCACGTGTAACT,-0.08 kcal/mol
9,ATGATCACGTGCTTTG,0.11 kcal/mol
10,TTGGTCACGTGGGCAA,-0.04 kcal/mol
11,TATGGCACGTGTGTGA,0.01 kcal/mol
12,TGGTACACGTGAAAAG,0.44 kcal/mol
13,AGTTGCACGTGTGGGA,0.03 kcal/mol
14,GTATACACGTGCATTT,0.1 kcal/mol
15,TTGGTCACGTGAGAGG,0.45 kcal/mol
16,ACAGTCACGTGAGGGA,0.33 kcal/mol
17,GGATACACGTGGGACT,0.23 kcal/mol
18,TTGTGCACGTGATGTT,0.11 kcal/mol
19,GAGGGCACGTGTGGTC,0.02 kcal/mol
20,CGTGTCACGTGAAAGT,0.26 kcal/mol
21,TGCTGCACGTGTTTGA,-0.08 kcal/mol
22,TAGGGCACGTGTAGAA,-0.04 kcal/mol
23,ACAATCACGTGTATGG,0.21 kcal/mol
24,CTGTTCACGTGTTGTA,0.13 kcal/mol
25,TATATCACGTGATTGA,0.14 kcal/mol

row,Sequence,relative binding free energy
1,AGAGGCACGTGACGGG,0.05 kcal/mol
2,GTTAGCACGTGTTATT,0.04 kcal/mol
3,TGATGCACGTGTATAA,-0.02 kcal/mol
4,AATCGCACGTGTTAGG,-0.01 kcal/mol
5,GGAAGCACGTGGTTAT,-0.16 kcal/mol
6,GAATTCACGTGGGTAA,0.28 kcal/mol
7,GTTATCACGTGAGTAT,0.35 kcal/mol
8,GTAGACACGTGGAGAT,0.09 kcal/mol
9,CGTGTCACGTGTAGGA,0.11 kcal/mol
10,GATAACACGTGGGCTT,0.05 kcal/mol
11,TGCAGCACGTGCGGGG,-0.19 kcal/mol
12,GGTATCACGTGATGCG,0.17 kcal/mol
13,ATTTCCACGTGGTGAT,0.09 kcal/mol
14,TAGGTCACGTGAGAAG,0.33 kcal/mol
15,TTTTTCACGTGCGTGT,0.22 kcal/mol
16,TCCGTCACGTGGGGTA,-0.12 kcal/mol
17,AGCTTCACGTGGAGTT,0.06 kcal/mol
18,TAGTACACGTGTGGAG,0.23 kcal/mol
19,ATTTCCACGTGTTTTT,0.05 kcal/mol
20,ATTGACACGTGTGTAC,0.13 kcal/mol
21,ATGGTCACGTGAGTTT,0.25 kcal/mol
